Results on 24 compounds are retold here after publication PMC4336329 (PLoS ONE, 2015).

Hit rate of the full screen: of about 310,000 compounds, about 2,200 (0.71%) showed an effect of 50% or more. Effects have a minus sign here. The list shows a part of the results.

For the test, the target named is human ether-à-go-go-related gene (hERG) potassium channel (human, UniProt Q12809). Put plainly: primary screen, population patch clamp on CHO cells stably expressing hERG.
Chain of human ether-à-go-go-related gene (hERG) potassium channel (Q12809 whole entry, looked up): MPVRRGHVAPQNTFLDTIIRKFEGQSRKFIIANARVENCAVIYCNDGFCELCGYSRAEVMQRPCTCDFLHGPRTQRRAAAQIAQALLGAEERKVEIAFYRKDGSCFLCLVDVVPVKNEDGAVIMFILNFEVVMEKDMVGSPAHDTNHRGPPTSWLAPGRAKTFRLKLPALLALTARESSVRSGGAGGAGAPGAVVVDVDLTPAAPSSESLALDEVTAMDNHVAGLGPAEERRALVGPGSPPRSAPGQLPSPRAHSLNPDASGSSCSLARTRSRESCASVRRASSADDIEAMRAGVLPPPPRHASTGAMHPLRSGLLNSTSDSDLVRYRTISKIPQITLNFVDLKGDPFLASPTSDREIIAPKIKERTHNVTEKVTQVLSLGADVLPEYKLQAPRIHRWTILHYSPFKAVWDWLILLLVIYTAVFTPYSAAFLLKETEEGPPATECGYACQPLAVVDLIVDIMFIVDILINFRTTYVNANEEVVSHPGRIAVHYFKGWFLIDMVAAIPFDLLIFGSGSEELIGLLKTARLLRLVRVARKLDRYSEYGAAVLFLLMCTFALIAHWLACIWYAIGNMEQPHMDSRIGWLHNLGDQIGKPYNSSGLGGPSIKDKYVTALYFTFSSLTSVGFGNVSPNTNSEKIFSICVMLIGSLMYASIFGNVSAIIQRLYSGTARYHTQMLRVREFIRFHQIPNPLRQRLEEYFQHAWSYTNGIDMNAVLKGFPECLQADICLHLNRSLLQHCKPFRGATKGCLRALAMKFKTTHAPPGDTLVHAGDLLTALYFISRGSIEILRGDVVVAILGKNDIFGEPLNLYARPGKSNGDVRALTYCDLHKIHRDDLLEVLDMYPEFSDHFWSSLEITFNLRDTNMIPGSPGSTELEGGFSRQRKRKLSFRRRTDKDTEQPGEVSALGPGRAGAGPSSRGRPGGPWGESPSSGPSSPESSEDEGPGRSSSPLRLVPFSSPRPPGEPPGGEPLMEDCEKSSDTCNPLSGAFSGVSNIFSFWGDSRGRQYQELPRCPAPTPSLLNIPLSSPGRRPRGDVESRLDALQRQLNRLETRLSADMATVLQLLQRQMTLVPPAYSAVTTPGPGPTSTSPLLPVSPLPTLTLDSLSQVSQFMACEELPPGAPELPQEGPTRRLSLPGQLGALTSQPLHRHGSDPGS
In the case of `O=C(Nc1ccccc1F)c1ccc(Cn2cc(Cl)cn2)cc1`, the “hERG current change (%, negative = inhibition) at 1uM” value was 2.2%.
In the case of `CC(C)OCC1CO1` (stereo not drawn), the “hERG current change (%, negative = inhibition) at 1uM” value was 11.2%.
Regarding `COc1ccc(C(=O)Nc2ccc(CN3CCOCC3)cc2)cc1Br`, the “hERG current change (%, negative = inhibition) at 1uM” value was 4.93%.
Take `OC[C@@H](O)[C@H](O)C(/C=N/Nc1ccccc1)=N\Nc1ccccc1`: the “hERG current change (%, negative = inhibition) at 1uM” value was 13%.
On to `Cc1ccc2oc(C(=O)N(C)Cc3ccon3)c(C)c2c1`, for which the “hERG current change (%, negative = inhibition) at 1uM” value came to 8.72%.
For `Cc1ccc(S(=O)(=O)NCCNC(=O)CN2CCCC2)cc1`, the “hERG current change (%, negative = inhibition) at 1uM” value is listed as -2.48%.
In the case of `O=C(c1ccc(CN2CCOCC2)cc1)N1CCN(c2ccccc2F)CC1`, the “hERG current change (%, negative = inhibition) at 1uM” value is 3.18%.
As for `Cl.N=c1c2c(n(Cc3ccc(Cl)cc3Cl)c3c1CCC3)CCCC2`, the “hERG current change (%, negative = inhibition) at 1uM” value was found to be 6.18%.
In the case of `O=C(c1cccnc1)N1CCCC(Nc2ccc(F)cc2)C1` (stereo not drawn), the “hERG current change (%, negative = inhibition) at 1uM” value came out at 16.4%.
The value for `CS(=O)(=O)O.Cc1c(O)cccc1C(=O)N[C@@H](CSc1ccccc1)[C@H](O)CN1C[C@H]2CCCC[C@H]2C[C@H]1C(=O)NC(C)(C)C` was -4.95%; that for `CN(C)CC[n+]1ccc(C(=O)c2ccccc2)cc1.Cl.[Cl-]` was 12.5%; that for `Fc1ccc(Cn2c(SCc3ccc(F)c(C(F)(F)F)c3)nnc2C(F)(F)F)cc1` was -0.982%.
Turning to `N/C(=N\OC(=O)CC(c1ccccc1)c1ccccc1)c1cccnc1`, the “hERG current change (%, negative = inhibition) at 1uM” value turned out to be 13.2%.
As for `COc1cccc(C2c3[nH]c4ccccc4c3CCN2C(=O)Cn2cncn2)c1OC` (stereo not drawn), the “hERG current change (%, negative = inhibition) at 1uM” value is recorded as 5.37%.
As to `CC(=O)NC1(NC(C)=O)CCN(C)CC1`, the “hERG current change (%, negative = inhibition) at 1uM” value came out at 8.58%.
As to `O=C(Nc1ccccc1C(=O)NCc1ccco1)Nc1cccc2ccccc12`, the “hERG current change (%, negative = inhibition) at 1uM” value worked out at 6.88%.
As for `CCN(CC)CCNC(=O)C1c2ccccc2C(=O)N(C)C1c1cn(C)c2ccccc12` (stereo not drawn), the “hERG current change (%, negative = inhibition) at 1uM” value came out at 6.3%.
Consider `CC(C)(C)c1cc(C(=O)O)c(CN2CCCCC2)o1.Cl`, for which the “hERG current change (%, negative = inhibition) at 1uM” value was -1.18%.
The value for `O=C(COc1ncnc2ccccc12)Nc1cc([N+](=O)[O-])ccc1Cl` was 19.1%; that for `COc1ccc(CN(CCc2ccccc2)Cc2ccccc2)cc1OC.O=C(O)C(=O)O` was 2.26%.
The value for `COc1ccccc1-n1c(-c2ccccc2Br)nc2ccccc2c1=O` was 12.3%; that for `Cc1ccccc1NC(=O)Cc1nnc(SCC(=O)NC2CCCCC2)n1C` was 12%.
The value for `O=C(Nc1ccc(F)cc1F)c1cccc(C(=O)Nc2ccc(F)cc2F)n1` was 9.79%.
Regarding `CCn1cc(C2=NOC(C(=O)Nc3cc(C)nn3-c3ccccc3)C2)c(C)n1` (stereo not drawn), the “hERG current change (%, negative = inhibition) at 1uM” value is listed as 0.767%.
